Experimental data reported in the supplement of paper PMC12217912.
The list shows a part of the results. The full chains were built here from the parent and the listed change. Values near 0.05 are background.

B1: TEV protease; numbered along this chain (parent)
chain: MGESLFKGPRDYNPISSSICHLTNESDGHTTSLYGIGFGPFIITNKHLFRRNNGTLVVQSLHGVFKVKDTTTLQQHLVDGRDMIIIRMPKDFPPFPQKLKFREPQREERICLVTTNFQTKSMSSMVSDTSCTFPSGDGIFWKHWIQTKDGQCGSPLVSTRDGFIVGIHSASNFTNTNNYFTSVPKNFMELLTNQEAQQWVSGWRLNADSVLWGGHKVFMVKPEEPFQPVKEATQL

Variants of: B1
Experiment: raw area under fraction-flipped curve 0-4 h after induction (AUC4h, not background-subtracted), DNA-recorder readout of cleavage of the substrate (dimensionless); higher = more cleavage of the substrate by the protease variant
Conditions: temperature: 34 °C; time window: 0-4 h after rhamnose induction
Description: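 In vivo DNA recorder in E. coli TOP10(DE3) ΔrhaA at 34 °C. Each TEVp single-site mutant (parent TEVp 0) is paired with a single-site variant of the 7-mer TEVs (canonical ENLYFQ|S). The substrate sits between flexible linkers in a Bxb1-sfGFP-TEVs-SsrA fusion, so cleavage stabilises Bxb1 and speeds flipping of a recombination array, read by NGS. The value is the raw area under the fraction-flipped curve over 0-4 h after rhamnose induction (AUC4h), with ≥20 reads per time point. It is not background-subtracted; inactive controls average about 0.047.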
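Further: Bxb1 expression induced with 0.2% (w/v) L-rhamnose at OD600 near 0.5, cultures sampled hourly, flipped fraction per protease–substrate barcode pair counted by paired-end Illumina sequencing.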

| Variant | area with substrate ENLAFQS | area with substrate ENLCFQS | area with substrate ENLDFQS | area with substrate ENLFFQS | area with substrate ENLGFQS | area with substrate ENLHFQS | area with substrate ENLKFQS | area with substrate ENLLFQS | area with substrate ENLMFQS | area with substrate ENLNFQS | area with substrate ENLPFQS | area with substrate ENLQFQS | area with substrate ENLRFQS | area with substrate ENLSFQS | area with substrate ENLTFQS | area with substrate ENLVFQS | area with substrate ENLWFQS | area with substrate ENLEFQS | area with substrate ENLIFQS |
| --- | --- | --- | --- | --- | --- | --- | --- | --- | --- | --- | --- | --- | --- | --- | --- | --- | --- | --- | --- |
| T23V | 0.114 | 0.07 | 0.059 | 0.0901 | 0.0538 | 0.0784 | 0.0908 | 0.0797 | 0.0584 | 0.0658 | 0.0602 | 0.0631 | 0.08 | 0.0683 | 0.0754 | 0.109 | 0.0613 |  |  |
| G35W | 0.0486 |  | 0.0582 | 0.0781 | 0.0778 |  | 0.0603 |  |  | 0.0435 | 0.0554 | 0.041 | 0.0328 | 0.07 |  | 0.0491 | 0.0522 | 0.0513 |  |
| S26D | 0.0731 | 0.0723 | 0.0659 | 0.0668 |  |  | 0.0786 |  | 0.0695 | 0.0659 | 0.0694 | 0.0613 | 0.0397 | 0.0623 |  | 0.0787 | 0.073 | 0.0658 | 0.0748 |
| T30Q | 0.0629 | 0.0753 | 0.0652 | 0.103 | 0.0639 |  | 0.072 |  | 0.0792 | 0.0535 | 0.0396 | 0.0664 | 0.0739 | 0.0637 | 0.0702 | 0.0766 | 0.068 | 0.0688 | 0.0843 |
| I36Q | 0.0551 |  | 0.0578 | 0.0581 |  | 0.0582 | 0.0619 |  |  | 0.0504 |  | 0.0767 | 0.0516 | 0.0467 |  |  | 0.0475 | 0.0471 |  |
| I36F | 0.0636 | 0.058 | 0.0656 | 0.0517 |  | 0.0665 | 0.0707 |  |  | 0.0752 | 0.0599 |  | 0.0579 | 0.0582 |  |  | 0.0612 | 0.0325 |  |
| R10E | 0.0911 | 0.0552 | 0.063 |  |  | 0.0633 | 0.0714 | 0.0663 |  | 0.0638 | 0.0699 | 0.0671 | 0.0791 | 0.0556 | 0.0698 |  |  | 0.0746 | 0.0634 |
| R10Q | 0.0779 | 0.082 | 0.0472 | 0.0883 | 0.0523 | 0.0837 | 0.0759 |  |  | 0.0688 | 0.0597 | 0.0726 | 0.0759 | 0.0642 |  | 0.0906 | 0.0712 | 0.0728 | 0.0802 |
| I43F | 0.099 |  | 0.0642 | 0.0671 |  | 0.0464 | 0.0618 | 0.0622 | 0.0618 | 0.0502 | 0.059 | 0.0519 | 0.0682 | 0.0544 | 0.0536 | 0.06 |  | 0.0754 |  |
| I43G | 0.0494 |  | 0.039 | 0.0499 |  | 0.0294 | 0.0424 | 0.0549 |  | 0.058 | 0.0531 |  |  | 0.0663 |  | 0.0468 | 0.0415 | 0.0416 | 0.037 |
| H29K | 0.0558 |  |  | 0.0551 |  | 0.0685 | 0.0764 |  |  | 0.0591 |  |  |  | 0.0759 |  | 0.0781 |  |  | 0.0801 |
| T44E | 0.0387 |  |  |  |  |  | 0.0393 |  |  | 0.0449 |  |  | 0.0472 |  |  |  | 0.0403 | 0.0404 | 0.056 |
| C20P | 0.0428 | 0.0367 | 0.0498 | 0.0543 | 0.066 | 0.0529 | 0.0543 | 0.0613 |  | 0.0588 | 0.0505 | 0.0477 | 0.0515 | 0.0524 | 0.0423 | 0.0541 | 0.0587 | 0.0469 | 0.0585 |
